Measurements: the supplement of paper PMC4166925
± gives the standard deviation of the averaged measurements. Over roughly 33,000 sequences, “E-score (dimensionless, -0.5 to 0.5)” has its median near -0.049; the highest 2% begin near 0.37. This is one part of the list.

system: T1, PmTbr T-box DNA-binding domain (GST fusion); assay: PBM E-score of 8-mer (E-score (dimensionless, -0.5 to 0.5)); Tbr is Tbrain of the sea star Patiria miniata (Pm) or the sea urchin Strongylocentrotus purpuratus (Sp); higher = stronger binding preference; most listed sequences are background and not binding sites; details: the construct has about 5 more residues each side
T1 sequence: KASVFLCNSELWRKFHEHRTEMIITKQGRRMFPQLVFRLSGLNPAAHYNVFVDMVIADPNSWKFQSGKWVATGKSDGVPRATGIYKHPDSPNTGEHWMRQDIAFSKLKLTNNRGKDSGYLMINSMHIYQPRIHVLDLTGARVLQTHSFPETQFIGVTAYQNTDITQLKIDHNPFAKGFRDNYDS
Outline: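 GST-fused Tbr T-box DNA-binding domains (the whole T-box plus about five flanking residues) were expressed in BL21 E. coli at 20 °C and purified by glutathione affinity chromatography. Universal Agilent oligonucleotide arrays were made double-stranded by primer extension, incubated with 200 nM protein in PBS (pH 7.5), then scanned and quantified. Every ungapped 8-mer was scored from probe intensities. The Universal PBM Analysis Suite gave each word an enrichment E-score, averaged over duplicate arrays.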

In order of rising “PBM E-score of 8-mer” value:
1. AGACTCCA  -0.285 ± 0.02
2. GCCGGACA  -0.283 ± 0.1
3. CTGAAGTC  -0.281 ± 0.071
4. ATCCCTAA  -0.279 ± 0.043
5. AGGATTCC  -0.271 ± 0.03
6. AATTAAAT  -0.258 ± 0.05
7. GATTAGGA  -0.247 ± 0.023
8. AGCTCTTA  -0.242 ± 0.081
9. ATAGGCAA  -0.239 ± 0.018
10. ATTCATCC  -0.239 ± 0.012
11. ATTAAGTC  -0.233 ± 0.059
12. GAGATGGA  -0.2233 ± 0.0022
13. TATAGGCA  -0.214 ± 0.016
14. AATAATAA  -0.195 ± 0.14
15. ATCCAGTG  -0.194 ± 0.025
16. GGTATGTA  -0.1927 ± 0.0012
17. CCTTGGAG  -0.183 ± 0.006
18. GTCCAAGA  -0.183 ± 0.069
19. CCATTTCC  -0.168 ± 0.014
20. TTAAGCAA  -0.165 ± 0.013
21. AGGAACCT  -0.16 ± 0.013
22. TAATTCTA  -0.158 ± 0.0049
23. ACTACTAG  -0.15 ± 0.029
24. AGCCCATA  -0.141 ± 0.088
25. AAGTACCA  -0.139 ± 0.04
26. CCATAATA  -0.13 ± 0.1
27. GGCTGAAA  -0.122 ± 0.0051
28. TAGTTGAA  -0.122 ± 0.071
29. CTCCTGGA  -0.121 ± 0.006
30. CATAATCG  -0.112 ± 0.03
31. ACCGTCCT  -0.11 ± 0.0051
32. CGGCCAAC  -0.109 ± 0.016
33. GAATTACA  -0.107 ± 0.032
34. CAATGAGA  -0.107 ± 0.036
35. ACTCTAAA  -0.1 ± 0.037
36. CGGAGGGA  -0.1 ± 0.014
37. GCAGCGGC  -0.0995 ± 0.015
38. AGATAGTC  -0.0975 ± 0.03
39. AGGCTTAA  -0.0924 ± 0.053
40. AAGCTGGT  -0.0921 ± 0.0075
41. CCGGCCGG  -0.086 ± 0.027
42. CGTATTAG  -0.0837 ± 0.007
43. ATGTTATA  -0.0814 ± 0.076
44. CTCAGGAA  -0.0745 ± 0.11
45. CGCAAAGC  -0.0712 ± 0.07
46. TGAAGCCA  -0.0702 ± 0.018
47. CTCCGAAA  -0.0688 ± 0.063
48. AGTTTAAG  -0.0675 ± 0.0052
49. CAGCCGAG  -0.0598 ± 0.015
50. ACCAGGTA  -0.0585 ± 0.034
51. AGTGGCCG  -0.0552 ± 0.03
52. ATGTCGGA  -0.0551 ± 0.054
53. AGATCGAA  -0.0529 ± 0.024
54. AAATTGGA  -0.0503 ± 0.068
55. CCGTTGCG  -0.05 ± 0.12
56. CCCTGAGG  -0.0476 ± 0.039
57. ACTCGCTC  -0.0462 ± 0.042
58. CTGAACGC  -0.0442 ± 0.051
59. GCGCTCGA  -0.0432 ± 0.0033
60. ACGAGGGA  -0.0369 ± 0.028
61. CTAGATGC  -0.0341 ± 0.036
62. AAAAGGTT  -0.0316 ± 0.041
63. CGTCGGAA  -0.0307 ± 0.035
64. TCGGCGAA  -0.0298 ± 0.064
65. CCATCTCC  -0.028 ± 0.048
66. AACGATTG  -0.0253 ± 0.067
67. TCTAGAGA  -0.0247 ± 0.0033
68. ATCTCCGC  -0.0197 ± 0.066
69. ACCCATCT  -0.0144 ± 0.026
70. GGCCGCCA  -0.0122 ± 0.039
71. CCCATCGC  -0.0116 ± 0.037
72. GGTAAGGA  -0.00604 ± 0.057
73. CAAGAACA  -0.00474 ± 0.001
74. AAATGAAA  -0.000675 ± 0.0081
75. AGGTATTA  5e-06 ± 0.0054
76. CTGAGACA  0.00251 ± 0.058
77. CTACCGCA  0.0194 ± 0.041
78. ACGTCGGG  0.0241 ± 0.023
79. ACGGTTAT  0.0253 ± 0.0073
80. GCCCTGCC  0.0257 ± 0.0016
81. CCCGGCAA  0.0288 ± 0.086
82. CAGTGATC  0.0318 ± 0.02
83. GCGGGAAA  0.0338 ± 0.0004
84. CACGATAC  0.0378 ± 0.017
85. CCACGTTC  0.0527 ± 0.00073
86. CAATACGC  0.0538 ± 0.0064
87. GCGTTTTA  0.0664 ± 0.083
88. CGTGACCC  0.0665 ± 0.017
89. AGCGCGCT  0.0819 ± 0.0034
90. ATTGCTTG  0.0819 ± 0.015
91. GTTTCTTA  0.0867 ± 0.056
92. AGAAGTCC  0.0869 ± 0.022
93. CTCTCAAA  0.0952 ± 0.0076
94. CCGCGTTA  0.112 ± 0.011
95. AAAGCCGC  0.114 ± 0.069
96. CGACTCGA  0.127 ± 0.0029
97. ATAACAGC  0.134 ± 0.038
98. AGGTAGTG  0.145 ± 0.01
99. GAGAAACA  0.146 ± 0.079
100. CCACTTGC  0.158 ± 0.056
101. GCTTGCCA  0.185 ± 0.052
102. GACTGTGA  0.226 ± 0.0079
103. CTCTCGCC  0.251 ± 0.015
104. CACACGTA  0.357 ± 0.0053
105. TCACGCCA  0.36 ± 0.028
106. AAGAGGTG  0.4261 ± 0.00096
107. AGGTGAGG  0.428 ± 0.013
108. GGTGACAA  0.47312 ± 1.4e-05
109. GAGTGTGA  0.4754 ± 0.0017
